Test results published in the supplement of paper PMC8728848.
Some of the results follow.

Tests used:
Experiment in all cases: glycan array binding signal (z-score within array); higher = stronger binding
Details in all cases: glycan notation: IUPAC condensed, linker removed
[1] = target: GlcNAc(b1-3)Gal(b1-3)GalNAc
How it was run: (§1)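 Glycan array data were curated from 3228 arrays in the Consortium for Functional Glycomics database and kept only where the protein sequence was available. Glycan names were converted to IUPAC-condensed notation, and columns mapping to the same glycan were averaged. The binding signal is a within-array Z-score, averaged across arrays of the same protein sequence at different concentrations or buffers and across linkers. Negative Z-scores can be read as non-binding.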

GlcNAc(b1-3)Gal(b1-4)Glc = target: GlcNAc(b1-3)Gal(b1-4)Glc
How it was run: as §1

[2] = target: GlcNAc(b1-3)Gal(b1-4)GlcNAc
How it was run: as §1

[3] = target: GlcNAc(b1-3)Gal(b1-4)GlcNAc(b1-2)Man(a1-3)[GlcNAc(b1-3)Gal(b1-4)GlcNAc(b1-2)Man(a1-6)]Man(b1-4)GlcNAc(b1-4)GlcNAc
How it was run: as §1

[4] = target: GlcNAc(b1-3)Gal(b1-4)GlcNAc(b1-2)Man(a1-3)[GlcNAc(b1-3)Gal(b1-4)GlcNAc(b1-2)Man(a1-6)]Man(b1-4)GlcNAc(b1-4)[Fuc(a1-6)]GlcNAc
How it was run: as §1

[5] = target: GlcNAc(b1-3)Gal(b1-4)GlcNAc(b1-2)[GlcNAc(b1-3)Gal(b1-4)GlcNAc(b1-6)]Man(a1-6)[GlcNAc(b1-3)Gal(b1-4)GlcNAc(b1-2)Man(a1-3)]Man(b1-4)GlcNAc(b1-4)GlcNAc
How it was run: as §1

[6] = target: GlcNAc(b1-3)Gal(b1-4)GlcNAc(b1-3)Gal(b1-4)GlcNAc
How it was run: as §1

[7] = target: GlcNAc(b1-3)Gal(b1-4)GlcNAc(b1-3)Gal(b1-4)GlcNAc(b1-2)Man(a1-3)[GlcNAc(b1-3)Gal(b1-4)GlcNAc(b1-3)Gal(b1-4)GlcNAc(b1-2)Man(a1-6)]Man(b1-4)GlcNAc(b1-4)GlcNAc
How it was run: as §1

[8] = target: GlcNAc(b1-3)Gal(b1-4)GlcNAc(b1-3)Gal(b1-4)GlcNAc(b1-2)Man(a1-3)[GlcNAc(b1-3)Gal(b1-4)GlcNAc(b1-3)Gal(b1-4)GlcNAc(b1-2)Man(a1-6)]Man(b1-4)GlcNAc(b1-4)[Fuc(a1-6)]GlcNAc
How it was run: as §1

[9] = target: GlcNAc(b1-3)Gal(b1-4)GlcNAc(b1-3)Gal(b1-4)GlcNAc(b1-2)[GlcNAc(b1-3)Gal(b1-4)GlcNAc(b1-3)Gal(b1-4)GlcNAc(b1-6)]Man(a1-6)[GlcNAc(b1-3)Gal(b1-4)GlcNAc(b1-3)Gal(b1-4)GlcNAc(b1-2)Man(a1-3)]Man(b1-4)GlcNAc(b1-4)[Fuc(a1-6)]GlcNAc
How it was run: as §1

[10] = target: GlcNAc(b1-3)Gal(b1-4)GlcNAc(b1-3)Gal(b1-4)GlcNAc(b1-3)Gal(b1-4)GlcNAc(b1-2)Man(a1-3)[GlcNAc(b1-3)Gal(b1-4)GlcNAc(b1-3)Gal(b1-4)GlcNAc(b1-3)Gal(b1-4)GlcNAc(b1-2)Man(a1-6)]Man(b1-4)GlcNAc(b1-4)GlcNAc
How it was run: as §1

[11] = target: GlcNAc(b1-3)Gal(b1-4)GlcNAc(b1-3)Gal(b1-4)GlcNAc(b1-3)Gal(b1-4)GlcNAc(b1-2)Man(a1-3)[GlcNAc(b1-3)Gal(b1-4)GlcNAc(b1-3)Gal(b1-4)GlcNAc(b1-3)Gal(b1-4)GlcNAc(b1-2)Man(a1-6)]Man(b1-4)GlcNAc(b1-4)[Fuc(a1-6)]GlcNAc
How it was run: as §1

[12] = target: GlcNAc(b1-3)Gal(b1-4)GlcNAc(b1-3)Gal(b1-4)GlcNAc(b1-3)Gal(b1-4)GlcNAc(b1-2)[GlcNAc(b1-3)Gal(b1-4)GlcNAc(b1-3)Gal(b1-4)GlcNAc(b1-3)Gal(b1-4)GlcNAc(b1-6)]Man(a1-6)[GlcNAc(b1-3)Gal(b1-4)GlcNAc(b1-3)Gal(b1-4)GlcNAc(b1-3)Gal(b1-4)GlcNAc(b1-2)Man(a1-3)]Man(b1-4)GlcNAc(b1-4)[Fuc(a1-6)]GlcNAc
How it was run: as §1

[13] = target: GlcNAc(b1-3)Gal(b1-4)GlcNAc(b1-3)Gal(b1-4)GlcNAc(b1-3)Gal(b1-4)GlcNAc(b1-3)Gal(b1-4)GlcNAc(b1-2)Man(a1-3)[GlcNAc(b1-3)Gal(b1-4)GlcNAc(b1-3)Gal(b1-4)GlcNAc(b1-3)Gal(b1-4)GlcNAc(b1-3)Gal(b1-4)GlcNAc(b1-2)Man(a1-6)]Man(b1-4)GlcNAc(b1-4)GlcNAc
How it was run: as §1

[14] = target: GlcNAc(b1-3)Gal(b1-4)GlcNAc(b1-3)Gal(b1-4)GlcNAc(b1-3)Gal(b1-4)GlcNAc(b1-3)Gal(b1-4)GlcNAc(b1-2)Man(a1-3)[GlcNAc(b1-3)Gal(b1-4)GlcNAc(b1-3)Gal(b1-4)GlcNAc(b1-3)Gal(b1-4)GlcNAc(b1-3)Gal(b1-4)GlcNAc(b1-2)Man(a1-6)]Man(b1-4)GlcNAc(b1-4)[Fuc(a1-6)]GlcNAc
How it was run: as §1

[15] = target: GlcNAc(b1-3)Gal(b1-4)GlcNAc(b1-3)Gal(b1-4)GlcNAc(b1-3)Gal(b1-4)GlcNAc(b1-3)Gal(b1-4)GlcNAc(b1-2)[GlcNAc(b1-3)Gal(b1-4)GlcNAc(b1-3)Gal(b1-4)GlcNAc(b1-3)Gal(b1-4)GlcNAc(b1-3)Gal(b1-4)GlcNAc(b1-6)]Man(a1-6)[GlcNAc(b1-3)Gal(b1-4)GlcNAc(b1-3)Gal(b1-4)GlcNAc(b1-3)Gal(b1-4)GlcNAc(b1-3)Gal(b1-4)GlcNAc(b1-2)Man(a1-3)]Man(b1-4)GlcNAc(b1-4)[Fuc(a1-6)]GlcNAc
How it was run: as §1

[16] = target: GlcNAc(b1-3)Gal(b1-4)GlcNAc(b1-3)Gal(b1-4)GlcNAc(b1-3)GalNAc
How it was run: as §1

[17] = target: GlcNAc(b1-3)Gal(b1-4)GlcNAc(b1-3)GalNAc
How it was run: as §1

[18] = target: GlcNAc(b1-3)Gal(b1-4)GlcNAc(b1-3)[GlcNAc(b1-3)Gal(b1-4)GlcNAc(b1-3)]GalNAc
How it was run: as §1

[19] = target: GlcNAc(b1-3)Gal(b1-4)GlcNAc(b1-6)[Gal(b1-3)]GalNAc
How it was run: as §1

[20] = target: GlcNAc(b1-3)Gal(b1-4)GlcNAc(b1-6)[GlcNAc(b1-3)Gal(b1-3)]GalNAc
How it was run: as §1

[21] = target: GlcNAc(b1-3)Gal(b1-4)GlcNAc(b1-6)[GlcNAc(b1-3)]Gal(b1-4)GlcNAc
How it was run: as §1

B1: MSMEG3662-2a (Mycobacterium smegmatis), A0QYH7_MYCS2 (protein)
chain: MGDTLTAGQKLERGGSLQSGNGAYTLTLQDDGNLVLYARDKAVWSTGTNGQDVVRAEVQTDGNFVLYTAEKPVWHTDTKGKKEVKLVLQDDRNLVLYAKDGPAWSSKTDTTEPPPPAPEPEKEAEVAPAAAEEAAPAPVAEPAPAEPAPAAPPPAPPAPRTYTVVSGDTLWAIAERFYGDGSKYQQIADASGIANPDLIHPGQVLTIP
B1 was tested, and the “glycan array binding signal (z-score)” value [1] was -0.057, the “glycan array binding signal (z-score)” value (GlcNAc(b1-3)Gal(b1-4)Glc) was -0.06 and the “glycan array binding signal (z-score)” value [2] was -0.14. The “glycan array binding signal (z-score)” value [3] was 0.049, the “glycan array binding signal (z-score)” value [4] was -0.093 and the “glycan array binding signal (z-score)” value [5] was -0.017. The “glycan array binding signal (z-score)” value [6] was -0.131, the “glycan array binding signal (z-score)” value [7] was 0.124 and the “glycan array binding signal (z-score)” value [8] was -0.086. The “glycan array binding signal (z-score)” value [9] was 0.085, the “glycan array binding signal (z-score)” value [10] was -0.056 and the “glycan array binding signal (z-score)” value [11] was -0.053. The “glycan array binding signal (z-score)” value [12] was -0.065, the “glycan array binding signal (z-score)” value [13] was 0.022 and the “glycan array binding signal (z-score)” value [14] was -0.029. For the same binder, the “glycan array binding signal (z-score)” value [15] was 0.237, the “glycan array binding signal (z-score)” value [16] was -0.127 and the “glycan array binding signal (z-score)” value [17] was -0.121. The “glycan array binding signal (z-score)” value [18] was -0.116, the “glycan array binding signal (z-score)” value [19] was -0.128 and the “glycan array binding signal (z-score)” value [20] was -0.14. For the same binder, the “glycan array binding signal (z-score)” value [21] was -0.127.
